Experimental data from the supplement of paper PMC3334620.
The full ranking holds about 33,000 sequences; the median of “E-score (-0.5 to 0.5)” is about -0.032, and the highest 2% start at about 0.36. This is one part of the list.

What follows are sequences tested against T1, Sko1 (UniProt Q02100) (assay: PBM E-score (8-mer binding enrichment) (E-score (-0.5 to 0.5)); higher = stronger / more preferred TF binding; most listed sequences are background and not binding sites). Details: protein concentration: 200 nM; construct: GST-full length.
T1 sequence: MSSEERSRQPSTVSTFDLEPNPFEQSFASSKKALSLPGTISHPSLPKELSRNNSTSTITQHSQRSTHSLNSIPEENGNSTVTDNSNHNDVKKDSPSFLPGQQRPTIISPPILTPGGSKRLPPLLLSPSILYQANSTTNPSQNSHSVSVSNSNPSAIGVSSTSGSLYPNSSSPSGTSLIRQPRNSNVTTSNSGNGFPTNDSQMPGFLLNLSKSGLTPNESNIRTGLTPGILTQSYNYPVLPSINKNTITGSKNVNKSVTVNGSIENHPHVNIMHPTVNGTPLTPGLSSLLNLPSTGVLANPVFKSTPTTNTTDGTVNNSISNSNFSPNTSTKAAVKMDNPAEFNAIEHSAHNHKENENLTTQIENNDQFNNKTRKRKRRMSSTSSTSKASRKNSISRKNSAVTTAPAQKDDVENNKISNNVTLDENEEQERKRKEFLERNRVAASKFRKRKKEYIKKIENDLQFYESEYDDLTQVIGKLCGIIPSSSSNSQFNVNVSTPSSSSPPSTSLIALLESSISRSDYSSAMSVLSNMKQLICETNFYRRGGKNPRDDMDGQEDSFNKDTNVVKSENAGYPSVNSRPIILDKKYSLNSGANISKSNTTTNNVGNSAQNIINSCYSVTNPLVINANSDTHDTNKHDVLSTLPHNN
In short: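 GST-tagged yeast TFs (full-length or DNA-binding domain) were made by PURExpress in vitro transcription/translation and applied at about 100-200 nM to universal all-10-mer Agilent arrays. The arrays were made double-stranded by primer extension, on fresh or once-stripped slides. Bound protein was detected with fluorescent anti-GST, and scans were normalised with masliner. Each ungapped eight-base word, pooled with its reverse complement, received an E-score (modified Wilcoxon-Mann-Whitney statistic) from the Universal PBM Analysis Suite.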

Sequence | PBM E-score
CACCTAAA | 0.0921
CATGGTCA | 0.194
GCGTAGCC | 0.00349
CTGGCCGA | -0.247
GTACTGAA | 0.156
ACAATGGC | 0.076
CGGATCCC | -0.302
AGACTTGC | -0.0691
CTGGCAGC | -0.199
AGCATTTA | 0.0954
ACGCGTCC | 0.0182
GATTACCC | -0.0418
GATAGGCC | -0.247
CAAAATCG | 0.0925
ACGTCCCG | 0.0538
GACCCGAA | -0.25
CCTAAGGC | -0.153
GCGAGACA | -0.0515
CAATCATC | 0.0821
AGTTCTGG | -0.0947
ACCATGCA | 0.0137
CAATCATG | 0.0604

Sequence | PBM E-score
GATTCGCA | 0.0622
ACCGCCAT | -0.149
CTTCGCCA | -0.184
AAGCCCAC | -0.0501
CAATAATA | 0.19
CCCAAACC | -0.118
CAGCCTTA | -0.213
AAGTGGAA | -0.17
CGAACCTC | -0.0957
ACTGGGCC | -0.238
AACGGTGC | 0.0584
AGCACCGC | -0.258
AGCTGAAG | -0.192
TAGAAGCA | 0.077
AGGTGTTG | 0.0206
TCATTCAA | 0.254
GTGTCGGA | -0.157
GGAGTGAA | -0.2
AACCATAA | 0.113
ACCGCACC | -0.0449
GCAGTTTA | -0.07
CTGAGGGA | -0.253

Sequence | PBM E-score
GTACGCAA | 0.399
CCCAAGTA | -0.226
CCCGGCAC | -0.232
AATCAAGG | -0.124
CTAGCAGA | -0.0607
GGGACCTA | -0.2
AGAGTCTA | -0.0237
CGCACACG | 0.162
GTCAAGAA | 0.169
ATTGTGAC | 0.18
ATTTAAAA | 0.123
CTGTCACA | -0.0326
AAAAATTA | 0.201
GAAAGCCA | -0.0817
ATGCGTGC | 0.202
GAATGTCC | -0.22
ATGAAGAC | 0.144
AACTTTAA | 0.194
TAGCTGGA | -0.189
AAGGATCA | -0.0728
ATAAGGCA | 0.0644
GAGCGTGA | -0.175

Sequence | PBM E-score
CTCGTGGA | -0.0793
GGGAGCTA | -0.185
CGTACGCC | 0.218
ATGAGTTG | 0.043
ATGTAGAA | 0.241
CAATCAAG | -0.106
CACAGTTA | 0.0467
AAATCGCC | -0.178
CGAAAAGA | 0.163
CGAATCGA | 0.169
ACTAGGCG | 0.0705
TGCAAACA | 0.0209
GTTGTAGA | 0.0228
ATCCCGCG | 0.0257
CGTTGCTC | 0.0339
CGTGTCTC | 0.231
AAGCAGAT | -0.0347
ACGATACC | 0.0977
TGCGATAA | 0.0952
CGTACACA | 0.239
ATGTCACC | 0.268
CACTAACG | 0.062

Sequence | PBM E-score
CCTTCCTC | -0.262
GACCTGCC | -0.225
CGGTAAAA | 0.0446
GCGTGACC | 0.0101
GAATATTC | 0.149
AAGCCCAA | 0.0326
CACAGAGA | 0.0519
CAACCGGA | -0.149
CAATCTAG | 0.00998
AACGTGGC | 0.193
ACTCGGGA | -0.147
CGATCCGC | -0.0715
AGTATTAC | 0.331
ACTGAAAT | 0.0526
ATGATGTC | 0.446
CCCTCAGG | -0.294
AGTTACTG | -0.0587
AGAAATGG | -0.183
CCTGGCTA | -0.048
CAGGAGTC | -0.0908
CACAAGGC | -0.105
